# Experimental data: the supplement of paper PMC8728848
# This is one part of the list.
# Tests used:
# Assay in all cases: glycan array binding signal (z-score within array); higher = stronger binding
# Conditions in all cases: glycan notation: IUPAC condensed, linker removed
# [1] = target: Gal(a1-3)Gal(b1-4)GlcNAc(b1-2)Man
# How it was run: (§1)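 The binding signal is a Z-score computed within each array and averaged over linkers. Arrays of the same protein sequence at different concentrations or buffers were also averaged together. Data originate from 3228 arrays in the Consortium for Functional Glycomics database, kept only where the protein sequence was available.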
# [2] = target: Gal(a1-3)Gal(b1-4)GlcNAc(b1-2)Man(a1-3)[Gal(a1-3)Gal(b1-4)GlcNAc(b1-2)Man(a1-6)]Man(b1-4)GlcNAc(b1-4)GlcNAc
# How it was run: as §1
# [3] = target: Gal(a1-3)Gal(b1-4)GlcNAc(b1-3)GalNAc
# How it was run: as §1
# [4] = target: Gal(a1-3)Gal(b1-4)GlcNAc(b1-6)GalNAc
# How it was run: as §1
# [5] = target: Gal(a1-3)Gal(b1-4)[Fuc(a1-3)]GlcNAc
# How it was run: as §1
# [6] = target: Gal(a1-3)Gal(b1-4)[Fuc(a1-3)]GlcNAc(b1-2)Man(a1-3)[Gal(a1-3)Gal(b1-4)[Fuc(a1-3)]GlcNAc(b1-2)Man(a1-6)]Man(b1-4)GlcNAc(b1-4)GlcNAc
# How it was run: as §1
# [7] = target: Gal(a1-3)GalNAc
# How it was run: as §1
# [8] = target: Gal(a1-3)[Gal(a1-4)]Gal(b1-4)GlcNAc
# How it was run: as §1
# [9] = target: Gal(a1-4)Gal(b1-3)GlcNAc(b1-2)Man(a1-3)[Gal(a1-4)Gal(b1-3)GlcNAc(b1-2)Man(a1-6)]Man(b1-4)GlcNAc(b1-4)GlcNAc
# How it was run: as §1
# [10] = target: Gal(a1-4)Gal(b1-4)Glc
# How it was run: as §1
# [11] = target: Gal(a1-4)Gal(b1-4)GlcNAc
# How it was run: as §1
# [12] = target: Gal(a1-4)Gal(b1-4)GlcNAc(b1-2)Man(a1-3)[Gal(a1-4)Gal(b1-4)GlcNAc(b1-2)Man(a1-6)]Man(b1-4)GlcNAc(b1-4)GlcNAc
# How it was run: as §1
# [13] = target: Gal(a1-4)Gal(b1-4)GlcNAc(b1-3)Gal(b1-4)Glc
# How it was run: as §1
# [14] = target: Gal(a1-4)GlcNAc
# How it was run: as §1
# [15] = target: Gal(a1-6)Glc
# How it was run: as §1
# [16] = target: Gal(b1-2)Gal
# How it was run: as §1
# [17] = target: Gal(b1-3)Gal
# How it was run: as §1
# [18] = target: Gal(b1-3)Gal(b1-4)GlcNAc
# How it was run: as §1
# [19] = target: Gal(b1-3)GalNAc
# How it was run: as §1
# [20] = target: Gal(b1-3)GalNAc(a1-3)[Fuc(a1-2)]Gal(b1-4)Glc
# How it was run: as §1
# [21] = target: Gal(b1-3)GalNAc(a1-3)[Fuc(a1-2)]Gal(b1-4)GlcNAc
# How it was run: as §1
# [22] = target: Gal(b1-3)GalNAc(b1-3)Gal
# How it was run: as §1
# [23] = target: Gal(b1-3)GalNAc(b1-3)Gal(a1-4)Gal(b1-4)Glc
# How it was run: as §1
# [24] = target: Gal(b1-3)GalNAc(b1-4)Gal(b1-4)Glc
# How it was run: as §1
# [25] = target: Gal(b1-3)GalNAc(b1-4)[Neu5Ac(a2-3)]Gal(b1-4)Glc
# How it was run: as §1
# [26] = target: Gal(b1-3)GlcNAc
# How it was run: as §1
# [27] = target: Gal(b1-3)GlcNAc(a1-3)Gal(b1-4)GlcNAc
# How it was run: as §1
# [28] = target: Gal(b1-3)GlcNAc(a1-6)Gal(b1-4)GlcNAc
# How it was run: as §1
# [29] = target: Gal(b1-3)GlcNAc(b1-2)Man
# How it was run: as §1
# [30] = target: Gal(b1-3)GlcNAc(b1-2)Man(a1-3)[Gal(b1-3)GlcNAc(b1-2)Man(a1-6)]Man(b1-4)GlcNAc(b1-4)GlcNAc
# How it was run: as §1
# [31] = target: Gal(b1-3)GlcNAc(b1-2)Man(a1-3)[Gal(b1-3)GlcNAc(b1-2)Man(a1-6)]Man(b1-4)GlcNAc(b1-4)[Fuc(a1-6)]GlcNAc
# How it was run: as §1
# [32] = target: Gal(b1-3)GlcNAc(b1-2)Man(a1-3)[GlcNAc(b1-4)][Gal(b1-3)GlcNAc(b1-2)Man(a1-6)]Man(b1-4)GlcNAc(b1-4)GlcNAc
# How it was run: as §1
# [33] = target: Gal(b1-3)GlcNAc(b1-2)[Gal(b1-3)GlcNAc(b1-6)]Man(a1-6)[Gal(b1-3)GlcNAc(b1-2)Man(a1-3)]Man(b1-4)GlcNAc(b1-4)GlcNAc
# How it was run: as §1
# [34] = target: Gal(b1-3)GlcNAc(b1-3)Gal(b1-3)GlcNAc
# How it was run: as §1
# [35] = target: Gal(b1-3)GlcNAc(b1-3)Gal(b1-4)Glc
# How it was run: as §1
# [36] = target: Gal(b1-3)GlcNAc(b1-3)Gal(b1-4)GlcNAc
# How it was run: as §1
# [37] = target: Gal(b1-3)GlcNAc(b1-3)Gal(b1-4)GlcNAc(b1-2)Man(a1-3)[Gal(b1-3)GlcNAc(b1-3)Gal(b1-4)GlcNAc(b1-2)Man(a1-6)]Man(b1-4)GlcNAc(b1-4)GlcNAc
# How it was run: as §1
binder,measurement,setting,value
OGAN (protein) MVQKESQATLEERESELSSNPAASAGASLEPPAAPAPGEDNPAGAGGAAVAGAAGGARRFLCGVVEGFYGRPWVMEQRKELFRRLQKWELNTYLYAPKDDYKHRMFWREMYSVEEAEQLMTLISAAREYEIEFIYAISPGLDITFSNPKEVSTLKRKLDQVSQFGCRSFALLFNDIDHNMCAADKEVFSSFAHAQVSITNEIYQYLGEPETFLFCPTEYCGTFCYPNVSQSPYLRTVGEKLLPGIEVLWTGPKVVSKEIPVESIEEVSKIIKRAPVIWDNIHANDYDQKRLFLGPYKGRSTELIPRLKGVLTNPNCEFEANYVAIHTLATWYKSNMNGVRKDVVMTDSEDSTVSIQIKLENEGSDEDIETDVLYSPQMALKLALTEWLQEFGVPHQY,glycan array binding signal (z-score),[1],-0.037
same,glycan array binding signal (z-score),[2],-0.062
same,glycan array binding signal (z-score),[3],-0.02
same,glycan array binding signal (z-score),[4],-0.025
same,glycan array binding signal (z-score),[5],-0.078
same,glycan array binding signal (z-score),[6],-0.048
same,glycan array binding signal (z-score),[7],-0.065
same,glycan array binding signal (z-score),[8],0
same,glycan array binding signal (z-score),[9],-0.031
same,glycan array binding signal (z-score),[10],-0.044
same,glycan array binding signal (z-score),[11],-0.049
same,glycan array binding signal (z-score),[12],-0.024
same,glycan array binding signal (z-score),[13],-0.078
same,glycan array binding signal (z-score),[14],-0.073
same,glycan array binding signal (z-score),[15],-0.091
same,glycan array binding signal (z-score),[16],-0.07
same,glycan array binding signal (z-score),[17],-0.064
same,glycan array binding signal (z-score),[18],-0.046
same,glycan array binding signal (z-score),[19],-0.068
same,glycan array binding signal (z-score),[20],-0.07
same,glycan array binding signal (z-score),[21],-0.088
same,glycan array binding signal (z-score),[22],-0.062
same,glycan array binding signal (z-score),[23],-0.054
same,glycan array binding signal (z-score),[24],-0.029
same,glycan array binding signal (z-score),[25],-0.088
same,glycan array binding signal (z-score),[26],-0.058
same,glycan array binding signal (z-score),[27],-0.067
same,glycan array binding signal (z-score),[28],-0.01
same,glycan array binding signal (z-score),[29],-0.027
same,glycan array binding signal (z-score),[30],-0.025
same,glycan array binding signal (z-score),[31],-0.064
same,glycan array binding signal (z-score),[32],-0.03
same,glycan array binding signal (z-score),[33],-0.047
same,glycan array binding signal (z-score),[34],-0.055
same,glycan array binding signal (z-score),[35],-0.012
same,glycan array binding signal (z-score),[36],-0.064
same,glycan array binding signal (z-score),[37],-0.022
